# Data reported in article PMC9911399, “Two distinct binding modes provide the RNA-binding protein RbFox with extraordinary sequence specificity”.
# Positions count from the first letter of the chain named. Some of the results follow.
# T1: RBFOX1 RRM RbFoxmut (Fox-RRM*) (Homo sapiens, UniProt Q9NWB1 109-208, R118D;E147R;N151S;E152T)
# T1 sequence: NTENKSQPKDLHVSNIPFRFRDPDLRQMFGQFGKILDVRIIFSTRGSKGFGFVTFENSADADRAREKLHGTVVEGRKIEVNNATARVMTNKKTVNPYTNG
# B1: GUAGCCU (DNA:RNA)
# RNA: GGGAGACCGGAAUUCAGAUUGUCCGUAGCCUUUAAAUCCCGUCGUAGCCACCA
# DNA 1: CAATCTGAATTCCGGTCTCCC
# DNA 2: TGGTGGCTACGACGGGATT
# B2: GUACGGU (DNA:RNA)
# RNA: B1 RNA with G28C, C29G, C30G
# DNA 1: CAATCTGAATTCCGGTCTCCC
# DNA 2: TGGTGGCTACGACGGGATT
# B3: AAAGUUA (DNA:RNA)
# RNA: B1 RNA with G25A, U26A, C29U, C30U, U31A
# DNA 1: CAATCTGAATTCCGGTCTCCC
# DNA 2: TGGTGGCTACGACGGGATT
# B4: ACCAUAU (DNA:RNA)
# RNA: B1 RNA with G25A, U26C, A27C, G28A, C29U, C30A
# DNA 1: CAATCTGAATTCCGGTCTCCC
# DNA 2: TGGTGGCTACGACGGGATT
# B5: GUCUUGA (DNA:RNA)
# RNA: B1 RNA with A27C, G28U, C29U, C30G, U31A
# DNA 1: CAATCTGAATTCCGGTCTCCC
# DNA 2: TGGTGGCTACGACGGGATT
# B6: ACAUGGC (DNA:RNA)
# RNA: B1 RNA with G25A, U26C, G28U, C29G, C30G, U31C
# DNA 1: CAATCTGAATTCCGGTCTCCC
# DNA 2: TGGTGGCTACGACGGGATT
# B7: UAGCACC (DNA:RNA)
# RNA: B1 RNA with G25U, U26A, A27G, G28C, C29A, U31C
# DNA 1: CAATCTGAATTCCGGTCTCCC
# DNA 2: TGGTGGCTACGACGGGATT
# B8: UUAGGUG (DNA:RNA)
# RNA: B1 RNA with G25U, C29G, C30U, U31G
# DNA 1: CAATCTGAATTCCGGTCTCCC
# DNA 2: TGGTGGCTACGACGGGATT
# B9: AUUCAGC (DNA:RNA)
# RNA: B1 RNA with G25A, A27U, G28C, C29A, C30G, U31C
# DNA 1: CAATCTGAATTCCGGTCTCCC
# DNA 2: TGGTGGCTACGACGGGATT
# B10: UGACCUA (DNA:RNA)
# RNA: B1 RNA with G25U, U26G, G28C, C30U, U31A
# DNA 1: CAATCTGAATTCCGGTCTCCC
# DNA 2: TGGTGGCTACGACGGGATT
# B11: CCGCUUA (DNA:RNA)
# RNA: GGGAGACCGGAAUUCAGAUUGUCCCCGCUUAUUAAAUCCCGUCGUAGCCACCA
# DNA 1: CAATCTGAATTCCGGTCTCCC
# DNA 2: TGGTGGCTACGACGGGATT
# B12: CGGUAUC (DNA:RNA)
# RNA: B11 RNA with C26G, C28U, U29A, A31C
# DNA 1: CAATCTGAATTCCGGTCTCCC
# DNA 2: TGGTGGCTACGACGGGATT
# B13: GAAGGGU (DNA:RNA)
# RNA: B1 RNA with U26A, C29G, C30G
# DNA 1: CAATCTGAATTCCGGTCTCCC
# DNA 2: TGGTGGCTACGACGGGATT
# B14: AGUCUGG (DNA:RNA)
# RNA: B11 RNA with C25A, C26G, G27U, U30G, A31G
# DNA 1: CAATCTGAATTCCGGTCTCCC
# DNA 2: TGGTGGCTACGACGGGATT
# B15: UAUGUAC (DNA:RNA)
# RNA: B11 RNA with C25U, C26A, G27U, C28G, U30A, A31C
# DNA 1: CAATCTGAATTCCGGTCTCCC
# DNA 2: TGGTGGCTACGACGGGATT
# B16: AUAUGGU (DNA:RNA)
# RNA: B1 RNA with G25A, G28U, C29G, C30G
# DNA 1: CAATCTGAATTCCGGTCTCCC
# DNA 2: TGGTGGCTACGACGGGATT
# B17: CAGCCGG (DNA:RNA)
# RNA: B11 RNA with C26A, U29C, U30G, A31G
# DNA 1: CAATCTGAATTCCGGTCTCCC
# DNA 2: TGGTGGCTACGACGGGATT
# B18: CGCUGAC (DNA:RNA)
# RNA: B11 RNA with C26G, G27C, C28U, U29G, U30A, A31C
# DNA 1: CAATCTGAATTCCGGTCTCCC
# DNA 2: TGGTGGCTACGACGGGATT
# B19: AACAGCU (DNA:RNA)
# RNA: B1 RNA with G25A, U26A, A27C, G28A, C29G
# DNA 1: CAATCTGAATTCCGGTCTCCC
# DNA 2: TGGTGGCTACGACGGGATT
# B20: GCUCUAG (DNA:RNA)
# RNA: B11 RNA with C25G, G27U, U30A, A31G
# DNA 1: CAATCTGAATTCCGGTCTCCC
# DNA 2: TGGTGGCTACGACGGGATT
# B21: AUGGAUU (DNA:RNA)
# RNA: B1 RNA with G25A, A27G, C29A, C30U
# DNA 1: CAATCTGAATTCCGGTCTCCC
# DNA 2: TGGTGGCTACGACGGGATT
# B22: AAGACUG (DNA:RNA)
# RNA: B11 RNA with C25A, C26A, C28A, U29C, A31G
# DNA 1: CAATCTGAATTCCGGTCTCCC
# DNA 2: TGGTGGCTACGACGGGATT
# B23: UCUGAUC (DNA:RNA)
# RNA: B11 RNA with C25U, G27U, C28G, U29A, A31C
# DNA 1: CAATCTGAATTCCGGTCTCCC
# DNA 2: TGGTGGCTACGACGGGATT
# B24: CGCGAGU (DNA:RNA)
# RNA: B1 RNA with G25C, U26G, A27C, C29A, C30G
# DNA 1: CAATCTGAATTCCGGTCTCCC
# DNA 2: TGGTGGCTACGACGGGATT
# B25: AUGUAUG (DNA:RNA)
# RNA: B11 RNA with C25A, C26U, C28U, U29A, A31G
# DNA 1: CAATCTGAATTCCGGTCTCCC
# DNA 2: TGGTGGCTACGACGGGATT
# B26: GGAAGGU (DNA:RNA)
# RNA: B1 RNA with U26G, G28A, C29G, C30G
# DNA 1: CAATCTGAATTCCGGTCTCCC
# DNA 2: TGGTGGCTACGACGGGATT
# B27: UGGAUUA (DNA:RNA)
# RNA: B11 RNA with C25U, C26G, C28A
# DNA 1: CAATCTGAATTCCGGTCTCCC
# DNA 2: TGGTGGCTACGACGGGATT
# B28: ACAGAUA (DNA:RNA)
# RNA: B11 RNA with C25A, G27A, C28G, U29A
# DNA 1: CAATCTGAATTCCGGTCTCCC
# DNA 2: TGGTGGCTACGACGGGATT
# B29: CGCAACG (DNA:RNA)
# RNA: B11 RNA with C26G, G27C, C28A, U29A, U30C, A31G
# DNA 1: CAATCTGAATTCCGGTCTCCC
# DNA 2: TGGTGGCTACGACGGGATT
# B30: UACUCAG (DNA:RNA)
# RNA: B1 RNA with G25U, U26A, A27C, G28U, C30A, U31G
# DNA 1: CAATCTGAATTCCGGTCTCCC
# DNA 2: TGGTGGCTACGACGGGATT
# B31: CUACCUC (DNA:RNA)
# RNA: B11 RNA with C26U, G27A, U29C, A31C
# DNA 1: CAATCTGAATTCCGGTCTCCC
# DNA 2: TGGTGGCTACGACGGGATT
# Target: T1, RBFOX1 RRM RbFoxmut (Fox-RRM*)
# Experiment: EMSA; HiTS-Eq, 1 nM pool, 10 min; buffer printed only for the single-RNA assays: 10 mM Tris pH 7.5, 150 mM NaCl, 3.4 mM EDTA, 0.001% NP-40, 30 C
# Details: tags: His6 N-terminal (pET28a); label: 5' 32P
# Summary of the method: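 Purified RbFox RRM, wild type or mutant, was incubated for 10 min in 50 µL with 1 nM of a 5′-radiolabelled RNA pool carrying 7 randomized nucleotides, whose flanks were annealed to DNA oligonucleotides, over a series of increasing protein concentrations. Unbound RNA was resolved on 8% native PAGE, cut out, reverse-transcribed, barcoded by PCR and sequenced on an Illumina HiSeq 2500. Relative association constants were derived from changes in read counts for each RNA species versus the control reaction and normalised to the cognate motif.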
row,Binder,binding signal
1,B1,0.0936 KA relative to UGCAUGU
2,B2,0.132 KA relative to UGCAUGU
3,B3,0.157 KA relative to UGCAUGU
4,B4,0.104 KA relative to UGCAUGU
5,B5,0.407 KA relative to UGCAUGU
6,B6,0.151 KA relative to UGCAUGU
7,B7,0.0974 KA relative to UGCAUGU
8,B8,0.139 KA relative to UGCAUGU
9,B9,0.0984 KA relative to UGCAUGU
10,B10,0.107 KA relative to UGCAUGU
11,B11,0.0982 KA relative to UGCAUGU
12,B12,0.245 KA relative to UGCAUGU
13,B13,0.0708 KA relative to UGCAUGU
14,B14,0.096 KA relative to UGCAUGU
15,B15,0.107 KA relative to UGCAUGU
16,B16,0.124 KA relative to UGCAUGU

row,Binder,binding signal
1,B17,0.0723 KA relative to UGCAUGU
2,B18,0.112 KA relative to UGCAUGU
3,B19,0.0625 KA relative to UGCAUGU
4,B20,0.121 KA relative to UGCAUGU
5,B21,0.156 KA relative to UGCAUGU
6,B22,0.103 KA relative to UGCAUGU
7,B23,0.0577 KA relative to UGCAUGU
8,B24,0.115 KA relative to UGCAUGU
9,B25,1.19 KA relative to UGCAUGU
10,B26,0.0479 KA relative to UGCAUGU
11,B27,0.106 KA relative to UGCAUGU
12,B28,0.11 KA relative to UGCAUGU
13,B29,0.106 KA relative to UGCAUGU
14,B30,0.0688 KA relative to UGCAUGU
15,B31,0.0669 KA relative to UGCAUGU
